# In publication PMC4336329 (PLoS ONE, 2015):
# Among all 310,000 compounds or so, about 2,200 (0.71%) showed an effect of 50% or more. Effects have a minus sign here. This is one part of the list.
# Target: human ether-à-go-go-related gene (hERG) potassium channel (human, UniProt Q12809)
# Experiment: primary screen, population patch clamp on CHO cells stably expressing hERG
# Chain of human ether-à-go-go-related gene (hERG) potassium channel (Q12809 whole entry, looked up): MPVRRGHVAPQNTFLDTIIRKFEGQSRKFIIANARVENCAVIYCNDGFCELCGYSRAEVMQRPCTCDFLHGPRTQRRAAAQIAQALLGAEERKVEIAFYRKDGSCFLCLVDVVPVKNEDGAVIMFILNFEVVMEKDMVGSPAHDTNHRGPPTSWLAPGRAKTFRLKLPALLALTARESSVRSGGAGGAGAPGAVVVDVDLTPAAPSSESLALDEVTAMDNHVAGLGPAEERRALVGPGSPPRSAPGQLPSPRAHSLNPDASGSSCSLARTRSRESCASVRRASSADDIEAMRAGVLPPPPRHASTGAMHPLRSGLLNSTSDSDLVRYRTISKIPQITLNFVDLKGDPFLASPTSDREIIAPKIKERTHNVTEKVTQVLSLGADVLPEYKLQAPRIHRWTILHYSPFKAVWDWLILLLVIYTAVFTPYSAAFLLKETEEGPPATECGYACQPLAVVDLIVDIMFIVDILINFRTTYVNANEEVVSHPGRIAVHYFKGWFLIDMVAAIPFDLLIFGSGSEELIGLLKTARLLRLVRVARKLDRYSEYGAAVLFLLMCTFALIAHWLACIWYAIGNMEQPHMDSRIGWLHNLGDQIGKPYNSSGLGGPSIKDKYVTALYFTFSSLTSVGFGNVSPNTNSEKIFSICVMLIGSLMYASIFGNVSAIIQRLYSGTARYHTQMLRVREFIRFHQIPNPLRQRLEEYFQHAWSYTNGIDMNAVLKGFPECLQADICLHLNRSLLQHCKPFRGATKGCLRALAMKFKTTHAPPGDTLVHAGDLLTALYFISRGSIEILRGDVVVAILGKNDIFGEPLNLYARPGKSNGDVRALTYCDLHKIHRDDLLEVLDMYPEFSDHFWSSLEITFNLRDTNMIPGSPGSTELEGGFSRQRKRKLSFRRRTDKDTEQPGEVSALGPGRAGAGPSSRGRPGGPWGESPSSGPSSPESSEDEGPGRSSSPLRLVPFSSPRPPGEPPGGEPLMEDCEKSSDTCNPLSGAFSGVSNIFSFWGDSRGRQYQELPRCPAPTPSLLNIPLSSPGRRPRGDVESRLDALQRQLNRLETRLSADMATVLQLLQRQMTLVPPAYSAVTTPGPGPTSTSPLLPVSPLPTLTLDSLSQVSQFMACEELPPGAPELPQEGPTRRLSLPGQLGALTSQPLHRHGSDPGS
row,Compound,"hERG current change (%, negative = inhibition) at 1uM"
1,Cc1ccc(S(=O)(=O)N(C)c2ccc(OCC(=O)Nc3nc(-c4ccccc4)cs3)cc2)cc1,14.3%
2,Oc1ccc(-n2cccc2/C=N/n2cnnc2)cc1,13.8%
3,Cc1cccc2c1-c1sc(C(=O)Nc3nccs3)cc1CO2,12.5%
4,Cc1cc(C)nc(SCCC(=O)Nc2ccccc2C)n1,20.5%
5,CC(=O)Nc1ccc(NC(=O)COc2ccc(S(=O)(=O)NC(C)c3ccccc3)cc2)cc1 (stereo not drawn),17.5%
6,CCc1ccccc1Nc1nc2ccccc2n1C,11.3%
7,Cc1cc(NC(=O)CSc2nc3cc(Cl)ccc3c(=O)n2Cc2ccco2)no1,23.3%
8,CNc1cc(CSC)nc(SCc2ccc(Cl)cc2Cl)n1,9.71%
9,CCOC(=O)[C@@H]1[C@H]2COc3ccccc3[C@@H]2N2C(=O)N(c3ccc(F)cc3)C(=O)[C@@]12C,14%
10,Cc1ccc2c(CC(=O)NCc3ccc4c(c3)OCO4)coc2c1,10.3%
11,CCN(CC)C(=O)CSc1nnc([C@@H](N)Cc2ccccc2)o1.Cl,4.8%
12,O=C(c1ccco1)N1CCN(C(=O)c2cccs2)CC1,7.29%
13,CCn1c(-c2ccc3ncccc3c2)n[nH]c1=S,1.67%
14,Clc1ccc(Cn2ncc3c(NCCN4CCOCC4)ncnc32)cc1,2.37%
15,CC(C)Sc1ccc(C(=O)Nc2ccc(F)cc2F)cn1,14.8%
16,Cc1cc(C)nc(SCC(=O)Nc2ncc3c(n2)CC(C)(C)CC3=O)n1,0.417%
17,C=CCNc1oc(COc2ccc(C)cc2)nc1C#N,6.32%
18,COCCCn1c(=N)c(C(=O)NCC2CCCO2)cc2c(=O)n3cccc(C)c3nc21 (stereo not drawn),-74.8%
19,Cc1ccccc1-n1c(=O)cc(N2CC(C)OC(C)C2)[nH]c1=O (stereo not drawn),-8.03%
20,CC(=O)N1CCN=C1SCc1ccc(F)cc1,9.72%
21,CCOC(=O)C1CCCN(C(=O)CCn2nc(-c3ccccc3)ccc2=O)C1 (stereo not drawn),-0.738%
22,CCC1SC2=NC(C)=C(C(=O)OCCOC)C(/C=C/c3ccccc3OC)N2C1=O (stereo not drawn),15.9%

row,Compound,"hERG current change (%, negative = inhibition) at 1uM"
1,O=[N+]([O-])c1ccc(S(=O)(=O)NCC(c2cccnc2)N2CCc3ccccc32)cc1 (stereo not drawn),-4.49%
2,C1CC2CN(c3nc4nonc4nc3N3CCSCC3)CCN2C1 (stereo not drawn),13.4%
3,CCc1cc(C(=O)N2CCN(C(=O)c3ccco3)CC2)sc1C,15.3%
4,O=C(O)c1ccc(Cl)c(S(=O)(=O)Nc2ccc3cn[nH]c3c2)c1,-8.18%
5,C/C(=N\NC(=O)c1ccc(CN(C)S(=O)(=O)c2ccc(C)cc2)cc1)c1ccc(OC(F)F)cc1,-2.71%
6,Cc1cc(NC(=O)CSc2ncnc3sc(C)c(C)c23)no1,11.7%
7,Cc1ccc(N2CC(C(=O)N3CCC(C(=O)Nc4nncs4)CC3)CC2=O)cc1 (stereo not drawn),14.9%
8,CC(C)CCn1c(=O)c2sccc2n2c(CCCC(=O)N3CCC(N4CCCCC4)CC3)nnc12,13.8%
9,CCOC(=O)C1=C(CC)Nc2ccccc2N=C1N,2.47%
10,C=CCn1c(SCc2nc3ccccc3[nH]2)nnc1-c1ccc(OC)cc1,1.4%
11,C=CCNC(=O)c1ccc(-c2nc(-c3ccc(Cl)cc3Cl)cs2)cc1,-3.24%
12,COc1ccc(NS(=O)(=O)c2cc(C(=O)N3CCN(C/C=C/c4ccccc4)CC3)ccc2C)cc1,-8%
13,O=C(Oc1ccccc1N1CCOCC1)c1sccc1Br,9.14%
14,O=C(O)c1cccc(NC(=O)c2cn(-c3ccccc3)nc2-c2cccc(Br)c2)c1,12.3%
15,CCN(CC(=O)N1CCN(Cc2ccccc2)CC1)S(=O)(=O)c1ccc(C)cc1,-3.83%
16,COc1cc(C(=O)NCC(c2ccccc2)N(C)C)ccc1OCc1c(C)noc1C (stereo not drawn),3.95%
17,CCC(C)(C)NC(=O)CN(Cc1ccc(OC)cc1)C(=O)CCC(=O)Nc1nccs1,2.96%
18,CN(C)/C=C/C(=O)c1ccc(-c2ccc(Cl)cc2Cl)o1,3.86%
19,Cc1[nH]c2ccc(C(=O)NCCCN3CCN(C)CC3)cc2c1C,15.6%
20,CCCCOc1ccc(C(=O)NCC(=O)NCC(c2ccc(F)cc2)N2CCOCC2)cc1 (stereo not drawn),9.34%
21,CCOC(=O)C1(CC)NC(c2ccc(N(C)C)cc2)C2C(=O)N(C)C(=O)C21 (stereo not drawn),4.32%
22,CCOc1ccc2oc(C(=O)Nc3ccc4c(c3)OCO4)c(C)c2c1,12.1%

row,Compound,"hERG current change (%, negative = inhibition) at 1uM"
1,CCOc1ccc(S(=O)(=O)N2CCNC(=O)C2)cc1,12.3%
2,Cc1oc2c(C)c3oc(=O)c(CCC(=O)NCCCCCC(=O)O)c(C)c3cc2c1C,25.2%
3,Cc1ccc2nc(N(CCCN(C)C)C(=O)c3ccc4ncsc4c3)sc2c1,-8.93%
4,Cc1ccc(-n2c3c(c(=O)[nH]c2=O)C(NS(=O)(=O)c2ccc(C)cc2)(C(F)(F)F)C(=O)N3)cc1 (stereo not drawn),7.64%
5,Cc1cc(O)cc2c1C(=O)/C(=C/c1ccco1)O2,20%
6,CCc1ccc(N2CCN(C(=O)N3CCOCC3)CC2)cc1,20.8%
7,N#CCCN1CCN(C(=O)c2c(N)no[n+]2[O-])CC1,9.05%
8,COc1ccc(C(=O)N/C(=C\c2ccccc2)C(=O)Nc2ccc(C(=O)NCC(=O)O)cc2)cc1,7.82%
9,CCC(=O)NC(c1ccccc1OC)c1ccc2cccnc2c1O (stereo not drawn),4.64%
10,COc1ccc(N2CCN(C(=O)CSc3nnc4c(C)cc5ccc(C)c(C)c5n34)CC2)cc1,4.93%
11,O=S(=O)(NCCc1csc(-c2ccccc2)n1)c1ccc2c(c1)OCCO2,10%
12,Cc1cc(OC(C)C(=O)NCC2CCC(C(=O)O)CC2)c2c3c(c(=O)oc2c1)CCC3 (stereo not drawn),5.87%
13,Cc1c(Br)c([N+](=O)[O-])nn1CC(=O)NCC1CCCO1 (stereo not drawn),20.8%
14,COc1cccc(C2CC(c3cccs3)=NN2C(=O)c2ccco2)c1O (stereo not drawn),10.2%
15,COc1cc(/C=C/C(=O)OCC(=O)Nc2ccc(S(=O)(=O)N3CCCC3)cc2)ccc1O,1.69%
16,COc1ccccc1NC(=O)CN1C(=O)C(C)Oc2ccccc21 (stereo not drawn),0.703%
17,CC1(C)Oc2ccc3ccc(=O)oc3c2[C@@H](O)[C@@H]1O,16.3%
18,O=C(O)C1C2C=CC(C2)C1C(=O)NCc1cccs1 (stereo not drawn),12.4%
19,COc1ccc(OC)c2[nH]c(=O)c(CCNC(=O)C(C)(C)C)cc12,12%
20,COc1ccc(CN2C(=O)CC(Cc3cc(C)cc(C)c3)C2=O)cc1OC (stereo not drawn),1.48%
21,COc1ccccc1CNC(=O)COC(=O)CNS(=O)(=O)c1ccc(NC(C)=O)cc1,15.2%
22,Cc1cc(NC(=O)COc2cccnc2[N+](=O)[O-])no1,10.7%

row,Compound,"hERG current change (%, negative = inhibition) at 1uM"
1,Cc1ccc(CNC(=O)CCCC(=O)Nc2cc(C)on2)cc1,11.7%
2,Cc1c(NC(=O)CSc2ncnc3ccccc23)c(=O)n(-c2ccccc2)n1C,14.7%
3,CC(=O)N(C)CC#CCN1CCCC(CO)C1 (stereo not drawn),7.08%
4,O=C1C2CC=CCC2C(=O)N1c1ccc(N2CCN(c3ccccn3)CC2)c([N+](=O)[O-])c1 (stereo not drawn),14.2%
5,Cc1ccc2sc(N(CCCN(C)C)C(=O)c3nc4ccccc4s3)nc2c1C.Cl,4.84%
6,CCN(CC)C(=O)CSC(=Nc1ccccc1F)NC#N,5.87%
7,CC(Oc1cccc(Cl)c1)C(=O)Nc1cc(Cl)ccc1N1CCOCC1 (stereo not drawn),6.59%
8,CNC(=O)COc1ccc(C=O)cc1OC,8.12%
9,N#Cc1ccc(-c2ccc(Cl)cc2)nc1SCC(=O)c1cccc(Cl)c1,24.1%
10,Nc1ncnc2c1cnn2C1CCCCC1,13.2%
11,COC(=O)c1sc(NC(=O)CSc2nc3nc(C)cc(C)n3n2)c(C(=O)OC)c1C,-8.79%
12,O=C(N/N=C1\CCCc2c1[nH]c1ccc([N+](=O)[O-])cc21)c1ccncc1,-1.41%
13,Oc1cccc(/C=N/Nc2nn3cnnc3c3ccccc23)c1,10.1%
14,COc1ccccc1N(CC(=O)NC1CCCC1)C(=O)c1cnn(C(C)C)c1,8.33%
15,COc1ccc2occ(C(=O)c3ccc(N=C(C)N(C)C)cc3)c2c1,-25.9%
16,O=C(CN1C(=O)S/C(=C/C=C/c2ccccc2)C1=O)Nc1ccc(C(=O)O)cc1,9.91%
17,Cc1ccc(-n2c(CCc3nc4ccccc4[nH]3)n[nH]c2=S)cc1,12.7%
18,Cc1ccc(CNC(=O)CC(C)S(=O)(=O)c2cc3c(cc2C)NC(=O)CO3)cc1 (stereo not drawn),-3.74%
19,CCOC(=O)C1CCCN(C2=NC(=O)/C(=C/c3ccc(OC)cc3)S2)C1 (stereo not drawn),9.92%
20,CC(=O)c1ccc(NC(=O)C(C)Sc2ccccn2)cc1 (stereo not drawn),9.91%
21,O=C(COC(=O)c1ccc(C(F)(F)F)cc1)NC(=O)NC1CCCC1,12.8%
